Measured values from patent EP4731682A1 (dated 2026).

T1: recombinant human Nectin-2-ECD/Fc fusion protein (human, UniProt Q92692 32-360)
T1 construct: extracellular domain; Bought reagent; not shown: Fc of the bought fusion protein
T1 sequence (looked up): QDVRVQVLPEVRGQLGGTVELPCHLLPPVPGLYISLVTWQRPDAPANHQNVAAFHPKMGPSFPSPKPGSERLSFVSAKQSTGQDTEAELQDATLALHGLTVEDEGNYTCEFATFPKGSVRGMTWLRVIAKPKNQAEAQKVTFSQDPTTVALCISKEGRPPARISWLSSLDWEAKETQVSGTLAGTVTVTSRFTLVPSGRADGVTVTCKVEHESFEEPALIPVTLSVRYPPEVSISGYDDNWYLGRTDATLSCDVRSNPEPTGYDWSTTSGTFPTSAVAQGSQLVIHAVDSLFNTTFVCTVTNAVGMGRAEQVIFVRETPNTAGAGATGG

T2: recombinant human PVR-ECD/His (human, UniProt P15151 21-343)
T2 construct: extracellular domain; Bought reagent; not shown: C-terminal His-tag
T2 sequence (looked up): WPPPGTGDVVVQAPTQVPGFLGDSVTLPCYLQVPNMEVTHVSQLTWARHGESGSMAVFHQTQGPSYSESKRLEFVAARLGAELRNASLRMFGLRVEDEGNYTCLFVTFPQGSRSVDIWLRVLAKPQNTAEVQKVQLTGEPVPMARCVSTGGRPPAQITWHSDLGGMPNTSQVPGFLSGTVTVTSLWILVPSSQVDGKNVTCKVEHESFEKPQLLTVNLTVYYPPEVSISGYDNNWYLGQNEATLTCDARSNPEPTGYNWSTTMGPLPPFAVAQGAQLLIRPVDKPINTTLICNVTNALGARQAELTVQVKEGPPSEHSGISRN

B1: TIGIT/G4Fc (Fc fusion)
chain: MMTGTIETTGNISAEKGGSIILQCHLSSTTAQVTQVNWEQQDQLLAICNADLGWHISPSFKDRVAPGPGLGLTLQSLTVNDTGEYFCIYHTYPDGTYTGRIFLEVLESSVAEHGARAS[human IgG4 Fc with S228P (EU numbers) not shown]
notes: TIGIT extracellular domain fused to an IgG4 Fc; also called Biotin-TIGIT/G4Fc
B2: TgPS-E_v2 (Fc fusion)
chain: MMTGTIETTGNISAEKGGSIILQCHLSSTTAQVTQVNWEQQDQLLAICNADLGWHISPSFKDRVAPGPGLGLTLQSLTVNDTGEYFCIYHTYPDGTYTGRIFLEVLESSVAEHGARAS[human IgG4 Fc with S228P (EU numbers) not shown]AAASSGGGGSGGGGSEEELQVIQPDKSVSVAAGESAILRCTVTSLTPVGPIQWFRGAGPARELIYNQKAKQFPRVTTVSESTKRENMIFSISISNITPADAGTYYCVKFRKGSPDTEFKSGAGTELSVRAKPSGSGGSGGSGGSGGSGSHGHHGHGGGGPTFSPALLVVTEGDNATFTCSFSNTSESFVLNWYRMSPHNQTDKLAAFPEDRSQPGQDCRFRVTQLPNGRDFHMSVVRARRNDSGTYLCGAISLAPKAQIKESLRAELRVTERRAEVPTAHPSPSPRPAGQFQTLV
notes: Two identical chains
B3: TgPS-C2_v2 (Fc fusion)
chain: SHGHHGHGGGGPTFSPALLVVTEGDNATFTCSFSNTSESFVLNWYRMSPHNQTDKLAAFPEDRSQPGQDCRFRVTQLPNGRDFHMSVVRARRNDSGTYLCGAISLAPKAQIKESLRAELRVTERRAEVPTAHPSPSPRPAGQFQTLVGSGGSGGSGGSGGSGMMTGTIETTGNISAEKGGSIILQCHLSSTTAQVTQVNWEQQDQLLAICNADLGWHISPSFKDRVAPGPGLGLTLQSLTVNDTGEYFCIYHTYPDGTYTGRIFLEVLESSVAEHGARAS[human IgG4 Fc with S228P (EU numbers) not shown]AAASSGGGGSGGGGSEEELQVIQPDKSVSVAAGESAILRCTVTSLTPVGPIQWFRGAGPARELIYNQKAKQFPRVTTVSESTKRENMIFSISISNITPADAGTYYCVKFRKGSPDTEFKSGAGTELSVRAKPS
notes: Two identical chains
B4: TIGIT/G1Fc (Fc fusion)
chain: MMTGTIETTGNISAEKGGSIILQCHLSSTTAQVTQVNWEQQDQLLAICNADLGWHISPSFKDRVAPGPGLGLTLQSLTVNDTGEYFCIYHTYPDGTYTGRIFLEVLESSVAEHGARAS[human IgG1 Fc with changes not shown]
notes: TIGIT extracellular domain fused to an IgG1 Fc
B5: TgPS-C1_v2 (Fc fusion)
chain: SHGHHGHGGGGPTFSPALLVVTEGDNATFTCSFSNTSESFVLNWYRMSPHNQTDKLAAFPEDRSQPGQDCRFRVTQLPNGRDFHMSVVRARRNDSGTYLCGAISLAPKAQIKESLRAELRVTERRAEVPTAHPSPSPRPAGQFQTLVGSGGSGGSGGSGGSGMMTGTIETTGNISAEKGGSIILQCHLSSTTAQVTQVNWEQQDQLLAICNADLGWHISPSFKDRVAPGPGLGLTLQSLTVNDTGEYFCIYHTYPDGTYTGRIFLEVLESSVAEHGARAS[human IgG1 Fc with changes not shown]AAASSGGGGSGGGGSEEELQVIQPDKSVSVAAGESAILRCTVTSLTPVGPIQWFRGAGPARELIYNQKAKQFPRVTTVSESTKRENMIFSISISNITPADAGTYYCVKFRKGSPDTEFKSGAGTELSVRAKPS
notes: Two identical chains
B6: TgPS-D_v2 (Fc fusion)
chain: MMTGTIETTGNISAEKGGSIILQCHLSSTTAQVTQVNWEQQDQLLAICNADLGWHISPSFKDRVAPGPGLGLTLQSLTVNDTGEYFCIYHTYPDGTYTGRIFLEVLESSVAEHGARGSGGSGGSGGSGGSGSHGHHGHGGGGPTFSPALLVVTEGDNATFTCSFSNTSESFVLNWYRMSPHNQTDKLAAFPEDRSQPGQDCRFRVTQLPNGRDFHMSVVRARRNDSGTYLCGAISLAPKAQIKESLRAELRVTERRAEVPTAHPSPSPRPAGQFQTLVAS[human IgG4 Fc with S228P (EU numbers) not shown]AAASSGGGGSGGGGSEEELQVIQPDKSVSVAAGESAILRCTVTSLTPVGPIQWFRGAGPARELIYNQKAKQFPRVTTVSESTKRENMIFSISISNITPADAGTYYCVKFRKGSPDTEFKSGAGTELSVRAKPS
notes: Two identical chains
B7: PD-1-mt13/G4Fc (Fc fusion)
chain: SHGHHGHGGGGPTFSPALLVVTEGDNATFTCSFSNTSESFVLNWYRMSPHNQTDKLAAFPEDRSQPGQDCRFRVTQLPNGRDFHMSVVRARRNDSGTYLCGAISLAPKAQIKESLRAELRVTERRAEVPTAHPSPSPRPAGQFQTLV[human IgG4 Fc with S228P (EU numbers) not shown]
B8: SIRPα-mt15/G1Fc (Fc fusion)
chain: EEELQVIQPDKSVSVAAGESAILRCTVTSLTPVGPIQWFRGAGPARELIYNQKAKQFPRVTTVSESTKRENMIFSISISNITPADAGTYYCVKFRKGSPDTEFKSGAGTELSVRAKPSAS[human IgG1 Fc with changes not shown]

biological target: T1, recombinant human Nectin-2-ECD/Fc …; test: ELISA; Nectin-2-ECD/Fc coated 1 ug/mL, Biotin-TIGIT/G4Fc, HRP-avidin (FIG. 2B)

binding result	Binder
binds	B1

biological target: T2, recombinant human PVR-ECD/His; test: ELISA; PVR-ECD/His coated 1 ug/mL, HRP anti-human IgG Fc (FIG. 16A)

binding result	Binder
binds	B2
binds	B3
binds	B4
binds	B5
binds	B6
binds	B1

biological target: T3, recombinant human PD-L1-ECD/His (human, UniProt Q9NZQ7 partial chain); test: ELISA; PD-L1-ECD/His coated 1 ug/mL, HRP anti-human IgG Fc (FIG. 16B)
T3 construct: extracellular domain; Bought reagent; not shown: C-terminal His-tag
T3 sequence (Q9NZQ7 19-238): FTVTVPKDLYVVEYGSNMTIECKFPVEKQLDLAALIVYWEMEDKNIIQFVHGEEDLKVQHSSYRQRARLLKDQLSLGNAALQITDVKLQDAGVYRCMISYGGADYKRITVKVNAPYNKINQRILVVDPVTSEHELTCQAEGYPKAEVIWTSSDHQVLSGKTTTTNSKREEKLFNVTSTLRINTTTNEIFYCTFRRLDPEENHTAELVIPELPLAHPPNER

binding result	Binder
binds	B2
binds	B3
binds	B5
binds	B6
binds	B7

biological target: T4, recombinant PVR-ECD/Fc fusion protein (human, biotinylated (Biotin-PVR-ECD/Fc; sites not stated)); test: ELISA; binder coated 1 ug/mL, serially diluted Biotin-PVR-ECD/Fc, HRP-avidin (FIG. 2A)
T4 construct: also called Biotin-PVR-ECD/Fc

binding result	Binder
binds	B1

biological target: T5, recombinant human CD47-ECD/His (human, UniProt Q08722 partial chain); test: ELISA; CD47-ECD/His coated 1 ug/mL, HRP anti-human IgG Fc (FIG. 16C)
T5 construct: extracellular domain; Bought reagent; not shown: C-terminal His-tag
T5 sequence (Q08722 19-139 limits assumed): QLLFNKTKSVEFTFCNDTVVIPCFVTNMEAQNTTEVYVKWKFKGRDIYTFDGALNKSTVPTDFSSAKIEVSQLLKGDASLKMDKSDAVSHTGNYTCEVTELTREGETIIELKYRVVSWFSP

binding result	Binder
binds	B2
binds	B3
binds	B5
binds	B6
binds	B8
